Results on 83 variants are retold here after the RNAGym collection of RNA variant scans (doi:10.1073/pnas.2313332121).

This sample is rich in variants without activity.

B1: TPR 5TU (parent)
chain: GGAUCUUCUCGAUCUAACAAAAAAGACAAAUCUGCCACAAAGCUUGAGAGCAUCUUCGGAUGCAGAGGCGGCAGCCUUCGGUGGCGCGAUAGCGCCAACGUUCUCAACUAUGACACGCAAAACGCGUGCUCCGUUGAAUGGAGUUUAUCAUG

Variants of B1 are the subject of the data set. Kind of data set: polymerase ribozyme fitness, log enrichment relative to wild type (log ratio); higher = more active; in vitro selection for triplet polymerase activity. Summed up: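 A heterodimeric triplet polymerase ribozyme had each of its subunits mutagenized by PCR into a library, which was transcribed. One round of in vitro selection, done in triplicate, annealed each library with a biotinylated primer, its partner subunit and triplets, then incubated it frozen at −7 °C before gel excision of extended constructs, streptavidin-bead capture and RT-PCR. Fitness is the logarithm of genotype enrichment relative to wild-type enrichment, based on Illumina sequencing of inputs and outputs and inverse-variance-weighted replicate averages. A base-2 logarithm is used, and genotypes were kept only with ≥10 input reads and ≥1 read per output.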
As for A49C G68C G94U A97U C114G G126A U127G, the “polymerase ribozyme fitness (log ratio)” value is at most -4.2.

As for A49G A91G A142C, the “polymerase ribozyme fitness (log ratio)” value is -3.71.

For the variant A49G A52C G86C, the “polymerase ribozyme fitness (log ratio)” value was -3.61.

Turning to A49C G68A C96G, the “polymerase ribozyme fitness (log ratio)” value is at most -4.2.

On to A49G A52G U55C G84A A91C C99G U101G G141U, for which the “polymerase ribozyme fitness (log ratio)” value was at most -4.2.

As for A49G G50A C51U A52G G68A C99U C116A, the “polymerase ribozyme fitness (log ratio)” value is at most -4.2.

In the case of A49G C51U C75U C93A, the “polymerase ribozyme fitness (log ratio)” value is at most -4.2.

As to A49C U53A C96A G112A C118A G143C U144A, the “polymerase ribozyme fitness (log ratio)” value was at most -4.2.

With A49C C85A U90G G94U A107G G141U, the “polymerase ribozyme fitness (log ratio)” value is at most -4.2.

A49G G74A C76G U77G C85U G112U: the “polymerase ribozyme fitness (log ratio)” value was at most -4.2.

For the variant A49C C99G A119U U151C, the “polymerase ribozyme fitness (log ratio)” value was at most -4.2.

In the case of A49C G58A G65A U139A, the “polymerase ribozyme fitness (log ratio)” value is at most -4.2.

For the variant A49G C79A A91G U139A, the “polymerase ribozyme fitness (log ratio)” value is at most -4.2.

Consider A49C G86U U111G U139A U144G, for which the “polymerase ribozyme fitness (log ratio)” value was at most -4.2.

As to A49C C87A C114U A150G, the “polymerase ribozyme fitness (log ratio)” value is at most -4.2.

As to A49G U53A G58C C85A G86U A97U U102A C103U, the “polymerase ribozyme fitness (log ratio)” value was at most -4.2.

With A49G U55A G59A U78G C95A A97U A142C, the “polymerase ribozyme fitness (log ratio)” value is at most -4.2.

Consider A49C G68A, for which the “polymerase ribozyme fitness (log ratio)” value was at most -4.2.

A49C C93A U104A A119C C132U G141C U145G: the “polymerase ribozyme fitness (log ratio)” value is at most -4.2.

As for A49G G50A U53A U77G C79U G92U U109G A122U U134C U135C C149A A150U, the “polymerase ribozyme fitness (log ratio)” value was at most -4.2.

For the variant A49C U145G, the “polymerase ribozyme fitness (log ratio)” value was at most -4.2.

A49G A91U C93U U101C: the “polymerase ribozyme fitness (log ratio)” value was at most -4.2.

As to A49G U53C C114U, the “polymerase ribozyme fitness (log ratio)” value is -2.54.

Consider A49C U101C C123A C129A, for which the “polymerase ribozyme fitness (log ratio)” value is at most -4.2.

Regarding A49G G58C C76U A89G C99G C116U C129A, the “polymerase ribozyme fitness (log ratio)” value was at most -4.2.

In the case of A49G G88U U145A, the “polymerase ribozyme fitness (log ratio)” value is at most -4.2.

In the case of A49C G83C C105A C132A, the “polymerase ribozyme fitness (log ratio)” value was at most -4.2.

For the variant A49C G58C C93A A122G, the “polymerase ribozyme fitness (log ratio)” value was at most -4.2.

As for A49G G59A C72A C85G, the “polymerase ribozyme fitness (log ratio)” value is at most -4.2.

Take A49C C85U: the “polymerase ribozyme fitness (log ratio)” value is -3.49.

With A49C G50U G94U C96U C116A, the “polymerase ribozyme fitness (log ratio)” value is at most -4.2.

Turning to A49C G88A A89G A119U U127A, the “polymerase ribozyme fitness (log ratio)” value is at most -4.2.

Regarding A49G C76A U102A U111C A120C U144A, the “polymerase ribozyme fitness (log ratio)” value was at most -4.2.

In the case of A49G G67U U145G, the “polymerase ribozyme fitness (log ratio)” value is at most -4.2.

For the variant A49G A52C U53A U55A C69A, the “polymerase ribozyme fitness (log ratio)” value was at most -4.2.

Consider A49C U56A C76A C87G G88C, for which the “polymerase ribozyme fitness (log ratio)” value was at most -4.2.

In the case of A49G C93A U134A U146G, the “polymerase ribozyme fitness (log ratio)” value is at most -4.2.

For A49C C99U U102G, the “polymerase ribozyme fitness (log ratio)” value was -0.308.

For the variant A49G U56A A64C C108A C149A, the “polymerase ribozyme fitness (log ratio)” value is at most -4.2.

Regarding A49G C54U C76U G84A A122U U145G, the “polymerase ribozyme fitness (log ratio)” value is at most -4.2.

For A49C G81A G92U C93U G140U G152C, the “polymerase ribozyme fitness (log ratio)” value is at most -4.2.

Turning to A49C C87A A91U G141U G152U, the “polymerase ribozyme fitness (log ratio)” value was at most -4.2.

As to A49G A52C, the “polymerase ribozyme fitness (log ratio)” value was -1.27.

Take A49C C87G C99G U111C U151A: the “polymerase ribozyme fitness (log ratio)” value was at most -4.2.

As for A49C G50C G81C A110U, the “polymerase ribozyme fitness (log ratio)” value was at most -4.2.

Consider A49C C103G A110C, for which the “polymerase ribozyme fitness (log ratio)” value was at most -4.2.

For A49C C118A U127A A147U, the “polymerase ribozyme fitness (log ratio)” value was at most -4.2.

With A49C U56A A64G C87U, the “polymerase ribozyme fitness (log ratio)” value was at most -4.2.

As to A49C U53A C75G A89U C93G G128C, the “polymerase ribozyme fitness (log ratio)” value was at most -4.2.

For A49C G58A C69A U78G, the “polymerase ribozyme fitness (log ratio)” value is at most -4.2.

As to A49C C96A C105A U111G, the “polymerase ribozyme fitness (log ratio)” value is at most -4.2.

Take A49G G83U A89C U90G C105U: the “polymerase ribozyme fitness (log ratio)” value is at most -4.2.

Turning to A49C G67A G92U A138C, the “polymerase ribozyme fitness (log ratio)” value was at most -4.2.

Take A49C C93U: the “polymerase ribozyme fitness (log ratio)” value is at most -4.2.

Take A49C G59C A91U: the “polymerase ribozyme fitness (log ratio)” value is at most -4.2.

Consider A49G G50C G71C G94C C105U U135G, for which the “polymerase ribozyme fitness (log ratio)” value was at most -4.2.

For the variant A49C G50A C51G G59C G65A U109A G117A, the “polymerase ribozyme fitness (log ratio)” value was at most -4.2.

Regarding A49G G62U C63U C96A A122U, the “polymerase ribozyme fitness (log ratio)” value is -3.19.

With A49C U55G C76U C87A C99U C105U A120U, the “polymerase ribozyme fitness (log ratio)” value is at most -4.2.

Take A49C U56A A91U C93A C116U A121G C129U G133A: the “polymerase ribozyme fitness (log ratio)” value was at most -4.2.

Take A49C G80A G86U U102A A115U: the “polymerase ribozyme fitness (log ratio)” value was at most -4.2.

A49G C93G C108A A120G A142U: the “polymerase ribozyme fitness (log ratio)” value is at most -4.2.

In the case of A49C G86A C129A C132U U148A G152U, the “polymerase ribozyme fitness (log ratio)” value is at most -4.2.

In the case of A49G G88U C96G U144C U148C U151G, the “polymerase ribozyme fitness (log ratio)” value is at most -4.2.

As to A49C C95U C96G, the “polymerase ribozyme fitness (log ratio)” value is -3.85.

In the case of A49C U55A A66U C72A C85U, the “polymerase ribozyme fitness (log ratio)” value is at most -4.2.

As to A49C C76U U90C C95A C105U, the “polymerase ribozyme fitness (log ratio)” value is at most -4.2.

For A49G C85G A91U G126C, the “polymerase ribozyme fitness (log ratio)” value is at most -4.2.

For A49G A66C A91C G100C, the “polymerase ribozyme fitness (log ratio)” value is at most -4.2.

For the variant A49G C87A C93U U146C U151G, the “polymerase ribozyme fitness (log ratio)” value was at most -4.2.

A49C U146A: the “polymerase ribozyme fitness (log ratio)” value is -3.98.

A49C U146C: the “polymerase ribozyme fitness (log ratio)” value is at most -4.2.

For A49C G65A A73U U102C G140A A150C, the “polymerase ribozyme fitness (log ratio)” value was at most -4.2.

With A49C C99U U145A, the “polymerase ribozyme fitness (log ratio)” value was at most -4.2.

Take A49G U53A G59A A142U: the “polymerase ribozyme fitness (log ratio)” value was -2.64.

On to A49C G68A C96U A98C C108G, for which the “polymerase ribozyme fitness (log ratio)” value was at most -4.2.

As for A49C G50C A91U C96G, the “polymerase ribozyme fitness (log ratio)” value is at most -4.2.

Take A49C C85U C96A A98U: the “polymerase ribozyme fitness (log ratio)” value was at most -4.2.

For the variant A49G C96A C103A A142C G152U, the “polymerase ribozyme fitness (log ratio)” value was at most -4.2.

For the variant A49C U61A A97G U148G, the “polymerase ribozyme fitness (log ratio)” value is at most -4.2.

For the variant A49G C149A, the “polymerase ribozyme fitness (log ratio)” value was at most -4.2.

For the variant A49G C93U C103G U135A G141A, the “polymerase ribozyme fitness (log ratio)” value was at most -4.2.

For A49C G68U C85U G100U C125U, the “polymerase ribozyme fitness (log ratio)” value is at most -4.2.
